# Experimental data from patent publication US9765075B2, “Substituted bridged urea analogs as sirtuin modulators” (GLAXOSMITHKLINE LLC, priority 2013, dated 2017).
# At least one structure is not confirmed: it was looked up by name or label, or the drawing left a doubt.
# Target: T1, SIRT1 (Homo sapiens, UniProt Q96EB6)
# T1 sequence (Q96EB6 1-747): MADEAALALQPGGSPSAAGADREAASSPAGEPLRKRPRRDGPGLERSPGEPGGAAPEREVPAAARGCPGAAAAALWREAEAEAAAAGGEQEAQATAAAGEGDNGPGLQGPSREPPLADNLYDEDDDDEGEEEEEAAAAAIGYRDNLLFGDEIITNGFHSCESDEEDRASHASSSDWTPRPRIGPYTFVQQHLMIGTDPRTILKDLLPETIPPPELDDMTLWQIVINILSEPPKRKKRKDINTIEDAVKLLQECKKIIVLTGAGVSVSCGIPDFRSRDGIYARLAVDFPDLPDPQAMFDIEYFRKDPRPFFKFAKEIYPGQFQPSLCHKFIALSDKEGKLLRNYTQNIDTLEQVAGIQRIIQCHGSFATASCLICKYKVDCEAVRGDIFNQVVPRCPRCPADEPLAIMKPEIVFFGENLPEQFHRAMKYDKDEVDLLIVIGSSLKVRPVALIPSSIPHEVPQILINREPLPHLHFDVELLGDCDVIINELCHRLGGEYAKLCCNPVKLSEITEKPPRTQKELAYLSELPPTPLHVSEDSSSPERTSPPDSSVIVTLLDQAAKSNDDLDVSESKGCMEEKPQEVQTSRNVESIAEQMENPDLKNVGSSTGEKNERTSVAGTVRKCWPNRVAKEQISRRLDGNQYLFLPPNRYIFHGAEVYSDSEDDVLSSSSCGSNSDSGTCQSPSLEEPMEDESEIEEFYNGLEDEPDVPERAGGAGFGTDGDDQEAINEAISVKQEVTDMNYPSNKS
# Assay: Trp mass spectrometry assay (SIRT1 activation)
# Assay type: biochemical
# Conditions: EC1.5 = concentration of test compound that results in 150% activation of SIRT1
# Source text: Mass spectrometry based assays were used to identify modulators of SIRT1 activity. […] The peptide was labeled with the fluorophore 5TMR (excitation 540 nm/emission 580 nm) at the C-terminus. The sequence of the peptide substrate was based on p53 with several modifications. In addition, the methionine residue naturally present in the sequence was replaced with the norleucine because the methionine may be susceptible to oxidation during synthesis and purification. The Trp based assay utilized a peptide having an amino acid residues as follows: Ac-R-H-K-K(Ac)-W-NH2 (SEQ ID NO: 2).
# The Trp mass spectrometry assay was conducted as follows. 0.5 μM peptide substrate and 120 μM βNAD^+ were incubated with 10 nM SIRT1 for 25 minutes at 25° C. in a reaction buffer (50 mM HEPES pH 7.5, […] NaCl, 1 mM DTT, 0.05% BSA). The SIRT1 protein was obtained by cloning the SirT1 gene into a T7-promoter containing vector, which was then expressed in BL21(DE3) bacterial cells and purified as described in further detail below. Test compound was added at varying concentrations to this reaction mixture and the resulting reactions were monitored. After the 25 minute incubation with SIRT1, 10 μL of 10% formic acid was added to stop the reaction. The resulting reactions were sealed and frozen for later mass spec analysis. The relative SIRT1 activity was then determined by measuring the amount of 0-acetyl-ADP-ribose (OAADPR) formed (or, alternatively, the amount of deacetylated Trp peptide generated) by the NAD-dependent sirtuin deacetylation reaction in the presence of varying concentrations of the test compound versus control reactions lacking the test compound. The degree to which the test agent activated deacetylation by SIRT1 was expressed as EC1.5 (i.e., the concentration of compound required to increase SIRT1 activity by 50% over the control lacking test compound), and Percent Maximum Activation (i.e., the maximum activity relative to control (100%) obtained for the test compound).
# A control for activation of sirtuin activity was conducted using 10 nM of sirtuin protein, with 1 μL of DMSO in place of compound, to determine the amount of deacetylation of the substrate at a given time point within the linear range of the assay. This time point was the same as that used for test compounds and, within the linear range, the endpoint represents a change in velocity.
# For the above assay, SIRT1 protein was expressed and purified as follows. The SirT1 gene was cloned into a T7-promoter containing vector and transformed into BL21(DE3). The protein was expressed by induction with 1 mM IPTG as an N-terminal His-tag fusion protein at 18° C. overnight and harvested at 30,000×g. Cells were lysed with lysozyme in lysis buffer (50 mM Tris-HCl, 2 mM Tris[2-carboxyethyl] phosphine (TCEP), 10 μM ZnCl2, 200 mM NaCl) and further treated with sonication for 10 min for complete lysis. The protein was purified over a Ni-NTA column (Amersham) and fractions containing pure protein were pooled, concentrated and run over a sizing column (Sephadex S200 26/60 global). The peak containing soluble protein was collected and run on an Ion-exchange column (MonoQ). Gradient elution (200 mM-500 mM NaCl) yielded pure protein. This protein was concentrated and dialyzed against dialysis buffer (20 mM Iris-HCl, 2 mM TCEP) overnight. The protein was aliquoted and frozen at −80° C. until further use.
row,SMILES,Tryp AVG EC1.5 (μM)
1,O=C(Nc1ccccn1)N1c2nc(-c3cccc(C(F)(F)F)c3)ccc2N2CC(O)C1C2 (centres unmarked) [Example 85],B (EC1.5 1-25 μM)
2,Cc1cnc(NC(=O)N2c3nc(-c4cccc(C(F)(F)F)c4)ccc3N3CC[C@H]2C3)nc1-c1ccccc1 [Example 79],B (EC1.5 1-25 μM)
3,O=C(Nc1cnccn1)N1c2nc(-c3cccc(C(F)(F)F)c3)ccc2N2CCC[C@H]1C2 [Example 27],A (EC1.5<1 μM)
4,Cc1ccc2ncccc2c1NC(=O)N1c2nc(-c3cccc(C(F)(F)F)c3)ccc2N2CC[C@H]1C2 [Example 84],C (EC1.5>25 μM)
5,CC(=O)c1cc(F)c(NC(=O)N2c3nc(-c4cccc(C(F)(F)F)c4)ccc3N3CC[C@H]2C3)c(F)c1 [Example 78],B (EC1.5 1-25 μM)
6,Cc1cc2c(NC(=O)N3c4nc(-c5cccc(C(F)(F)F)c5)ccc4N4CC[C@H]3C4)cccc2nn1 [Example 86],A (EC1.5<1 μM)
7,O=C(Nc1cc[nH]c(=O)n1)N1c2nc(-c3cccc(C(F)(F)F)c3)ccc2N2CC[C@H]1C2 [Example 82],B (EC1.5 1-25 μM)
8,Cc1csc2nc(NC(=O)N3c4nc(-c5cccc(C(F)(F)F)c5)ccc4N4CC[C@H]3C4)nn12 [Example 80],A (EC1.5<1 μM)
